About 220 (0.56%) of roughly 39,000 compounds showed activity. The list shows a part of the results.
What follows are compounds tested on Escherichia coli K-12 BW25113 (assay: relative growth (OD600 normalised to plate interquartile mean) (fraction); higher = less growth inhibition, active = 0.2 or less). Conditions: 50 µM; LB; incubation time: overnight (16-24 h).
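Also: static incubation at 37 °C against the wild-type strain, values averaged over two biological replicates.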

SMILES	relative growth
COc1ccc(CN(C)C[C@H]2OCCCC[C@@H](C)Oc3ccc(NS(=O)(=O)c4ccc(Cl)cc4)cc3C(=O)N([C@H](C)CO)C[C@@H]2C)cc1	inactive: 1
CCC(=O)O[C@H]1[C@@H]2CC3=C4CC(=O)O[C@@H](c5ccoc5)[C@]4(C)CC[C@@H]3[C@@](C)(C2=O)[C@@H](CC(=O)OC)C1(C)C	inactive: 0.993
Cc1noc(C)c1S(=O)(=O)N(C)C[C@H]1Oc2ccc(NS(=O)(=O)c3ccc(F)cc3)cc2CC(=O)N([C@H](C)CO)C[C@@H]1C	inactive: 1.04
C[C@@H]1CN([C@@H](C)CO)C(=O)c2ccccc2-c2ccccc2CO[C@@H]1CN(C)S(=O)(=O)c1ccc(C(F)(F)F)cc1	inactive: 1.03
C=C(C)C(=O)N1CCC=CC1=O	inactive: 0.987
O=C(O)c1cnc(N2CCCC2)nc1	inactive: 1.03
C[C@H]1CN([C@@H](C)CO)C(=O)c2cccc(NS(=O)(=O)c3ccc(F)cc3)c2O[C@H]1CN(C)C(=O)Nc1cccc2ccccc12	inactive: 0.973
C[C@@H]1CCCCO[C@H](CN(C)Cc2ccc3c(c2)OCO3)[C@H](C)CN([C@@H](C)CO)C(=O)c2cc(NS(=O)(=O)c3ccccc3)ccc2O1	inactive: 0.971
COc1c(-c2ccccc2)oc2c(ccc3ccoc32)c1=O	inactive: 0.916
COc1ccccc1-c1ccc2c(c1)O[C@@H](CN(C)C(=O)c1cccnc1)[C@@H](C)CN([C@H](C)CO)S2(=O)=O	inactive: 0.907
C[C@H](CO)N1C[C@H](C)[C@@H](CN(C)C(=O)NC2CCCCC2)OCCCC[C@H](C)Oc2ccc(NC(=O)Nc3ccccc3)cc2C1=O	inactive: 1.01
O=c1c(O[C@@H]2O[C@H](CO)[C@@H](O)[C@H](O)[C@H]2O)c(-c2ccc(O)c(O)c2)oc2cc(O)cc(O)c12	inactive: 1.04
C[C@@H]1CN([C@@H](C)CO)C(=O)c2cccc(NC(=O)C3CCOCC3)c2O[C@H]1CN(C)S(=O)(=O)c1cccs1	inactive: 1
Cc1noc(C)c1S(=O)(=O)N(C)C[C@@H]1Oc2ccc(NS(=O)(=O)c3ccc(F)cc3)cc2CC(=O)N([C@H](C)CO)C[C@@H]1C	inactive: 1
C[C@H](CO)N1C[C@H](C)[C@H](CN(C)C(=O)CCC(F)(F)F)OCCCC[C@H](C)Oc2ccc(NC(=O)Cc3ccccc3)cc2C1=O	inactive: 1.04
C[C@H]1CN([C@@H](C)CO)C(=O)c2cccc(NS(=O)(=O)c3ccc(F)cc3)c2O[C@@H]1CN(C)C(=O)Nc1ccc(C(F)(F)F)cc1	inactive: 0.978
Cc1ccc2nncn2n1	inactive: 1
Cc1ccc(S(=O)(=O)N(C)C[C@H]2Oc3ccc(NC(=O)c4ccncc4)cc3C(=O)N([C@H](C)CO)C[C@@H]2C)cc1	inactive: 1.01
O=C1[C@H]2[C@H](O)CS[C@H]2C(=O)N1c1ccccc1	inactive: 1
Cc1ccc(S(=O)(=O)Nc2ccc3c(c2)CC(=O)N([C@H](C)CO)C[C@@H](C)[C@@H](CN(C)Cc2ccncc2)O3)cc1	inactive: 0.876
Cc1noc(C)c1S(=O)(=O)Nc1ccc2c(c1)CC(=O)N([C@H](C)CO)C[C@@H](C)[C@@H](CN(C)S(=O)(=O)c1c(C)noc1C)O2	inactive: 1.01
Cc1ccc(C)c(OCCCC(C)(C)C(=O)O)c1	inactive: 1.18

SMILES	relative growth
Cc1cc(C(=O)Nc2cccc3c2O[C@@H](CN(C)C(=O)NC(C)C)[C@@H](C)CN([C@H](C)CO)C3=O)n(C)n1	inactive: 1
C[C@@H]1CN([C@@H](C)CO)C(=O)Cc2cc(NC(=O)C3CCCCC3)ccc2O[C@H]1CN(C)Cc1ccc(Oc2ccccc2)cc1	inactive: 1.02
CCOC(=O)c1c(CN2CCN(c3ccccc3)CC2)n(-c2ccccc2)c2cc(Br)c(O)cc12	inactive: 1.03
C[C@H](CO)N1C[C@H](C)[C@H](CN(C)C(=O)Nc2ccc(C(F)(F)F)cc2)OCCCC[C@H](C)Oc2ccc(NS(=O)(=O)c3ccc(F)cc3)cc2C1=O	inactive: 1.03
OC[C@H]1O[C@@H](n2cnc3c(NCc4ccco4)ncnc32)[C@H](O)[C@@H]1O	inactive: 0.956
CCn1c2c(c3cc(C4CCCCC4)ccc31)CCC/C2=N\O	inactive: 1.04
Cc1ccc(S(=O)(=O)N(C)C[C@H]2Oc3ccc(NC(=O)CCCN(C)C)cc3CC(=O)N([C@H](C)CO)C[C@H]2C)cc1	inactive: 0.988
C[C@@H]1CCCCO[C@H](CN(C)Cc2ccc(Cl)c(Cl)c2)[C@@H](C)CN([C@@H](C)CO)C(=O)c2cc(NC(=O)c3ccccc3)ccc2O1	inactive: 1.01
NCc1ccccc1Oc1ccccc1	inactive: 0.993
O=C(C[C@H]1C[C@H]2c3cc(NC(=O)c4ccc5c(c4)OCO5)ccc3O[C@H]2[C@H](CO)O1)NCCc1ccccc1	inactive: 1.04
COc1ccc(CN(C)C[C@@H]2Oc3ccc(NS(=O)(=O)c4c(C)noc4C)cc3CC(=O)N([C@H](C)CO)C[C@@H]2C)cc1	inactive: 1.01
C[C@H](CO)N1C[C@H](C)[C@@H](CN(C)C(=O)Nc2cccc3ccccc23)Oc2c(NC(=O)Nc3ccccc3)cccc2C1=O	inactive: 1.02
CC(C)NC(=O)N[C@H]1C=C[C@H](CC(=O)O)O[C@@H]1CO	inactive: 0.976
OCCCC1=C[C@H](c2ccc(CN3CCCC3)cc2)N(Cc2cc3c(cc2Br)OCO3)CC1	inactive: 1.03
O=S1(=O)CCC(O)CC1	inactive: 0.999
CC[N+](C)(C)c1cccc(O)c1.[Cl-]	inactive: 1.13
CN1CCN(C(=O)C[C@H]2CC[C@H]3[C@@H](COC[C@H](O)CN3C(=O)Nc3ccc4c(c3)OCO4)O2)CC1	inactive: 1
C[C@H](CO)N1C[C@H](C)[C@H](CN(C)S(C)(=O)=O)Oc2ccc(NC(=O)c3ccncc3)cc2CC1=O	inactive: 1.02
COc1ccc(S(=O)(=O)N[C@@H]2C=C[C@@H](CC(=O)N3CCN(c4ccccc4)CC3)O[C@H]2CO)cc1	inactive: 1.03
Cc1ccc(S(=O)(=O)Nc2ccc3c(c2)C(=O)N([C@H](C)CO)C[C@H](C)[C@@H](CN(C)C(=O)NC2CCCCC2)OCCCC[C@@H](C)O3)cc1	inactive: 1.07
Nc1ccncc1N	inactive: 0.969
Cc1noc(C)c1NC(=O)Nc1ccc2c(c1)C(=O)N([C@H](C)CO)C[C@@H](C)[C@@H](CN(C)C(=O)Nc1cccc3ccccc13)O2	inactive: 1.01

SMILES	relative growth
CNC[C@@H]1Oc2ccc(NC(=O)Cn3cnnn3)cc2CC(=O)N([C@H](C)CO)C[C@@H]1C	inactive: 1
Nc1ccn([C@H]2C[C@@H](O)[C@@H](CO)O2)c(=O)n1	inactive: 0.988
C[C@H]1N(c2cnn(C)c2)C(=O)COC12CCN(S(C)(=O)=O)CC2	inactive: 1.01
COc1cc2ccc(=O)oc2c(O[C@H]2O[C@@H](CO)[C@@H](O)[C@@H](O)[C@@H]2O)c1O	inactive: 1.03
C[C@@H]1CN([C@H](C)CO)C(=O)Cc2cc(NC(=O)Cn3cnnn3)ccc2O[C@@H]1CN(C)C(=O)Nc1cccc2ccccc12	inactive: 0.999
Cc1noc(C)c1NC(=O)N(C)C[C@@H]1OCCCC[C@H](C)Oc2ccc(NC(=O)Nc3ccccc3)cc2C(=O)N([C@@H](C)CO)C[C@H]1C	inactive: 0.952
CN1C[C@@H]2CN(C(=O)[C@H]3CCOC3)C[C@H]2C1=O	inactive: 0.972
COc1cccc(S(=O)(=O)Nc2ccc3c(c2)[C@H]2C[C@@H](CC(=O)NCc4cccc(F)c4)O[C@@H](CO)[C@H]2O3)c1	inactive: 0.965
O=C(C[C@@H]1C[C@@H]2c3cc(NC(=O)c4ccc5c(c4)OCO5)ccc3O[C@@H]2[C@H](CO)O1)NCc1cccnc1	inactive: 0.999
C[C@H](CO)N1C[C@H](C)[C@H](CN(C)S(=O)(=O)c2ccc(Cl)cc2)Oc2ccc(NC(=O)Nc3ccc(C(F)(F)F)cc3)cc2C1=O	inactive: 1.02
C[C@@H]1CN([C@H](C)CO)C(=O)CCCn2cc(nn2)CO[C@H]1CN(C)S(=O)(=O)c1ccc(Cl)cc1	inactive: 0.999
COc1cccc(C#Cc2cnc3c(c2)C(=O)N([C@H](C)CO)C[C@H](C)[C@@H](CN(C)C(=O)C2CCC2)O3)c1	inactive: 1.02
COc1ccc2c3c([nH]c2c1)[C@H](CO)N(C[C@]13CCN(CC1)Cc1ccccc1)S(=O)(=O)c1cn(cn1)C	inactive: 1.02
Clc1ccc(-c2onc3cc(-c4ccccc4)ccc23)cc1	inactive: 1.05
CCC(=O)OC1C2CC3=C4CC(=O)OC(c5ccoc5)C4(C)CCC3C(C)(C2=O)C(CC(=O)OC)C1(C)C (stereo not given)	inactive: 1.04
Cc1ccc(S(=O)(=O)N2C[C@@H](O)COC[C@@H]3O[C@H](CC(=O)NCc4ccc5c(c4)OCO5)CC[C@H]32)cc1	inactive: 0.958
Cc1ccc(S(=O)(=O)N(C)C[C@@H]2Oc3ccc(NS(=O)(=O)c4cn(C)cn4)cc3C(=O)N([C@@H](C)CO)C[C@@H]2C)cc1	inactive: 1.02
C[C@H]1CCCCO[C@@H](CN(C)C(=O)Nc2cccc3ccccc23)[C@@H](C)CN([C@@H](C)CO)C(=O)c2cc(NC(=O)Cc3ccccc3)ccc2O1	inactive: 0.987
C[C@H](NC(=O)C(C)(C)Oc1ccc(C(F)(F)F)cn1)[C@@H](Cc1ccc(Cl)cc1)c1cccc(C#N)c1	inactive: 1.02
CC[C@@H](CO)NC(=O)c1ccc(N)cc1	inactive: 1.01
C[C@@H]1CCCCO[C@@H](CN(C)S(C)(=O)=O)[C@H](C)CN([C@@H](C)CO)C(=O)c2cc(NC(=O)CCCN(C)C)ccc2O1	inactive: 0.999

— the supplement of paper PMC9446081
